Measured values published in the supplement of paper PMC12067230.
This is a noisy data set.

Assay: amyloid nucleation score relative to library mode (yeast Sup35 reporter selection) (log enrichment difference); higher = more amyloid nucleation; sequences are the first 22 residues of the Bri2 peptide extended by up to 12 random residues
Settings: random library (experiment): 1;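 active = nucleation score significantly above 0 at FDR 0.05; inactive = not significantly above 0 or absent from output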
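Further: [psi-pin-] Saccharomyces cerevisiae expressing SupN fusions, induced by 100 µM Cu2SO4, selected 7 d at 30 °C without adenine and uracil, scored by deep sequencing of output versus input.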

| Sequence | amyloid nucleation score |
| --- | --- |
| EASNCFAIRHFENKFAVETLICDSSRVVVCETML | inactive |
| EASNCFAIRHFENKFAVETLICDSSVVSGMSGRH | inactive |
| EASNCFAIRHFENKFAVETLICDSSWVDTSGATQ | 0.514 |
| EASNCFAIRHFENKFAVETLICDSVCYNIHWIIG | 7.75 |
| EASNCFAIRHFENKFAVETLICDSVKTIGGGMKE | inactive |
| EASNCFAIRHFENKFAVETLICDSVRPWEAAGGR | inactive |
| EASNCFAIRHFENKFAVETLICDSVVHPYYGLVW | inactive |
| EASNCFAIRHFENKFAVETLICDSVVPRRGPWLW | 2.78 |
| EASNCFAIRHFENKFAVETLICDSWRKYYDGYPR | 3.72 |
| EASNCFAIRHFENKFAVETLICDSWRVTEGPRGE | inactive |
| EASNCFAIRHFENKFAVETLICDT | -0.287 |
| EASNCFAIRHFENKFAVETLICDTAGRMFVVKID | inactive |
| EASNCFAIRHFENKFAVETLICDTCERNGPWQLT | inactive |
| EASNCFAIRHFENKFAVETLICDTDVRLLVCLNA | inactive |
| EASNCFAIRHFENKFAVETLICDTFTNELLRMPG | -0.876 |
| EASNCFAIRHFENKFAVETLICDTFYDPVYSTHI | 1.68 |
| EASNCFAIRHFENKFAVETLICDTMWNF | 4.87 |
| EASNCFAIRHFENKFAVETLICDTRAVLVSVMWP | inactive |
| EASNCFAIRHFENKFAVETLICDTRRLGGRGVAR | inactive |
| EASNCFAIRHFENKFAVETLICDTSRLHRSGWTG | 2.96 |
| EASNCFAIRHFENKFAVETLICDTSS | inactive |
| EASNCFAIRHFENKFAVETLICDTSTCGVQWITA | inactive |
| EASNCFAIRHFENKFAVETLICDTWVVVHRDRD | 7.1 |
| EASNCFAIRHFENKFAVETLICDVAKGLCVVWRS | inactive |
| EASNCFAIRHFENKFAVETLICDVAVVARANMST | inactive |
| EASNCFAIRHFENKFAVETLICDVCVMAKYVARW | 6.18 |
| EASNCFAIRHFENKFAVETLICDVEICVIERRRN | inactive |

| Sequence | amyloid nucleation score |
| --- | --- |
| EASNCFAIRHFENKFAVETLICDVEINCWCRLKR | 4.35 |
| EASNCFAIRHFENKFAVETLICDVGGSDW | inactive |
| EASNCFAIRHFENKFAVETLICDVGISYVGPRCD | 2.45 |
| EASNCFAIRHFENKFAVETLICDVGQ | inactive |
| EASNCFAIRHFENKFAVETLICDVGVW | 2.99 |
| EASNCFAIRHFENKFAVETLICDVHKLHCLTFQL | 3.88 |
| EASNCFAIRHFENKFAVETLICDVKGGR | inactive |
| EASNCFAIRHFENKFAVETLICDVMWIRRTLV | inactive |
| EASNCFAIRHFENKFAVETLICDVQNFRRDVSEP | inactive |
| EASNCFAIRHFENKFAVETLICDVRAPDRRKLRG | inactive |
| EASNCFAIRHFENKFAVETLICDVRWSM | inactive |
| EASNCFAIRHFENKFAVETLICDVSDYTSVVEDA | inactive |
| EASNCFAIRHFENKFAVETLICDVSIAIRYPVAM | inactive |
| EASNCFAIRHFENKFAVETLICDVSSVFI | inactive |
| EASNCFAIRHFENKFAVETLICDVTAKSEHMFTA | inactive |
| EASNCFAIRHFENKFAVETLICDVV | 0.547 |
| EASNCFAIRHFENKFAVETLICDVVNTDSLRVCL | 4.24 |
| EASNCFAIRHFENKFAVETLICDVYSRFVRLEGV | inactive |
| EASNCFAIRHFENKFAVETLICDWFNGI | -0.534 |
| EASNCFAIRHFENKFAVETLICDWFSAVSVLCCA | 4.58 |
| EASNCFAIRHFENKFAVETLICDWGHILLQYGPW | inactive |
| EASNCFAIRHFENKFAVETLICDWGLASHVRTDI | inactive |
| EASNCFAIRHFENKFAVETLICDWHQGSVGVVTR | inactive |
| EASNCFAIRHFENKFAVETLICDWHVRWGVAKKR | inactive |
| EASNCFAIRHFENKFAVETLICDWMES | -0.0385 |
| EASNCFAIRHFENKFAVETLICDWPVWR | inactive |
| EASNCFAIRHFENKFAVETLICDWRAQRQ | 3.22 |

Same assay, conditions: random library (experiment): 2

| Sequence | amyloid nucleation score |
| --- | --- |
| EASNCFAIRHFENKFAVETLICDSSLCRVRQRLG | inactive |
| EASNCFAIRHFENKFAVETLICDSSVGRALRFGM | inactive |
| EASNCFAIRHFENKFAVETLICDSTMKEAARGST | 4.05 |
| EASNCFAIRHFENKFAVETLICDSWKILGALRMI | inactive |
| EASNCFAIRHFENKFAVETLICDSYLCVRCDQLD | -0.399 |
| EASNCFAIRHFENKFAVETLICDTAIVWPRLVTG | inactive |
| EASNCFAIRHFENKFAVETLICDTEISSSFLGYS | 0.625 |
| EASNCFAIRHFENKFAVETLICDTFFGQTRGQLH | 7.15 |
| EASNCFAIRHFENKFAVETLICDTIINVIWWNWV | inactive |
| EASNCFAIRHFENKFAVETLICDTLFRSMITWLP | -0.344 |
| EASNCFAIRHFENKFAVETLICDTLFYSLPSCEG | 5.95 |
| EASNCFAIRHFENKFAVETLICDTPSVSDKCMCG | inactive |
| EASNCFAIRHFENKFAVETLICDTRASWWTWGSR | 4.72 |
| EASNCFAIRHFENKFAVETLICDTRGW | inactive |
| EASNCFAIRHFENKFAVETLICDTVKYC | -0.385 |
| EASNCFAIRHFENKFAVETLICDTVNYNRPSGCL | 7.12 |
| EASNCFAIRHFENKFAVETLICDTYNRRGICNGG | inactive |
| EASNCFAIRHFENKFAVETLICDV | -0.507 |
| EASNCFAIRHFENKFAVETLICDVDIHCTFGFSG | 4.25 |

| Sequence | amyloid nucleation score |
| --- | --- |
| EASNCFAIRHFENKFAVETLICDVDVVLFGSNTV | 6.4 |
| EASNCFAIRHFENKFAVETLICDVFVRPFVFLFI | inactive |
| EASNCFAIRHFENKFAVETLICDVFVWWVLRAGR | inactive |
| EASNCFAIRHFENKFAVETLICDVH | inactive |
| EASNCFAIRHFENKFAVETLICDVHWGALWFCMF | inactive |
| EASNCFAIRHFENKFAVETLICDVHWYFWHRCYI | 1.38 |
| EASNCFAIRHFENKFAVETLICDVIGCMVCGSAI | 7.68 |
| EASNCFAIRHFENKFAVETLICDVIITCKRIEIV | 4.36 |
| EASNCFAIRHFENKFAVETLICDVKCLGY | inactive |
| EASNCFAIRHFENKFAVETLICDVLF | -0.405 |
| EASNCFAIRHFENKFAVETLICDVLSGIS | inactive |
| EASNCFAIRHFENKFAVETLICDVPEVWAGGSRR | inactive |
| EASNCFAIRHFENKFAVETLICDVSACLILSFNS | 5.12 |
| EASNCFAIRHFENKFAVETLICDVSAL | 6.55 |
| EASNCFAIRHFENKFAVETLICDVSKAACDST | inactive |
| EASNCFAIRHFENKFAVETLICDVVRIGIPDLLY | 5.77 |
| EASNCFAIRHFENKFAVETLICDWDYRAYKMFM | 4.26 |
| EASNCFAIRHFENKFAVETLICDWK | 0.342 |

Same assay, conditions: random library (experiment): 3

| Sequence | amyloid nucleation score |
| --- | --- |
| EASNCFAIRHFENKFAVETLICDSSTHNNFGSTS | 4.82 |
| EASNCFAIRHFENKFAVETLICDSTTINYSICP | 7.02 |
| EASNCFAIRHFENKFAVETLICDSVVPRQHGGRP | inactive |
| EASNCFAIRHFENKFAVETLICDSWRKVYWCLMF | inactive |
| EASNCFAIRHFENKFAVETLICDTAKRQEGELAW | inactive |
| EASNCFAIRHFENKFAVETLICDTESMHSWDVCQ | inactive |
| EASNCFAIRHFENKFAVETLICDTLWRLVGDFTK | 5.9 |
| EASNCFAIRHFENKFAVETLICDTRFVISKMWGC | 5.25 |
| EASNCFAIRHFENKFAVETLICDTTVVRNYLTFR | inactive |
| EASNCFAIRHFENKFAVETLICDTVGALAVLREA | inactive |
| EASNCFAIRHFENKFAVETLICDVADECLGKCRC | inactive |
| EASNCFAIRHFENKFAVETLICDVAHPVDVESTM | inactive |
| EASNCFAIRHFENKFAVETLICDVAHRLELLLRV | inactive |
| EASNCFAIRHFENKFAVETLICDVASG | inactive |
| EASNCFAIRHFENKFAVETLICDVFNLRRRWLGA | inactive |
| EASNCFAIRHFENKFAVETLICDVGRRCRRVDGR | -0.00897 |
| EASNCFAIRHFENKFAVETLICDVIYEYLSVSVR | inactive |
| EASNCFAIRHFENKFAVETLICDVKIATSSGGHG | 4.53 |
| EASNCFAIRHFENKFAVETLICDVNWCIYVGRK | 6.01 |
| EASNCFAIRHFENKFAVETLICDVSLSAETRPVA | 1.15 |
| EASNCFAIRHFENKFAVETLICDVSYIHPVGSER | inactive |
| EASNCFAIRHFENKFAVETLICDVTRVIVADACH | inactive |
| EASNCFAIRHFENKFAVETLICDVVFERGSPGSG | 1.34 |
| EASNCFAIRHFENKFAVETLICDVVGSATADCEL | inactive |
| EASNCFAIRHFENKFAVETLICDWCRGCSILERI | 1.09 |
| EASNCFAIRHFENKFAVETLICDWFIDITENLSK | inactive |
| EASNCFAIRHFENKFAVETLICDWKGFFRYYGLE | inactive |
| EASNCFAIRHFENKFAVETLICDWMYHMRVRARY | inactive |
